Laboratory results: PubChem BioAssay AID445 (National Center for Advancing Translational Sciences (NCATS), 2006)
About 40 (0.04%) of roughly 110,000 compounds were called active. The shares of active, inactive and inconclusive entries below differ from those in the screen. Calls come from the whole dose curve; as a rule, active = well fitted curve in the direction sought with a large enough effect in the signal ratio (not every such curve was filed as active); inconclusive = small, poorly fitted or top-dose-only effect, or a change in a side signal; inactive = flat fitted curve, though single readings scatter; the % refers to the signal ratio. A potency beside an inconclusive call is a rough fit, not a confirmed value.

assay: IkB Signaling; conditions: ABC-DLBCL IkBa-CBG/CBR dual luciferase ratio (green luciferase fused to IkBa over red control in OCI-Ly3 lymphoma cells), 4 h; IkBa stabilization activation: at 57.1 µM (top of the series), scaled: untreated 0%, proteasome inhibitor 100% unless noted;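 for IkBa stabilization activation: 0% = basal untreated cells and 100% = reference inhibitor full response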
Outline: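 In this assay, an IκBα–CBG68 fusion accumulates when IKK-driven degradation is blocked; native CBR normalizes for cell number. OCI-Ly3 cells were treated 4 h with compound and doxycycline, then green and red light read after Chroma-Glo addition.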
Potency is the fitted concentration of half-maximal effect.

Structure (SMILES) | IkBa stabilization activation | Potency
O=C(c1noc2c1CCCC2)N1CCN(Cc2ccccc2)CC1 | inconclusive: 8.79% [signal inhibitor] | –
CCCOc1ccc2ccccc2c1/C=N/n1cnnc1 | inactive: -1.21% | –
CCOc1ccc(Nc2nc(C)c(NC(=O)c3cccc(OC)c3)c(Nc3ccc(OCC)cc3)n2)cc1 | inconclusive: 10.5% [signal inhibitor] | –
O=C(c1ccc2c(c1)OCO2)N1CCN(c2ccccc2)CC1 | inconclusive: 3.85% [signal inhibitor] | –
COc1ccc(Cc2ccc3[nH]c(=O)cc(C)c3c2)cc1S(=O)(=O)O | inactive: 0.384% [at 11.4 µM, scaled: untreated 0%, proteasome inhibitor 100%] | –
c1ccc2ccccc2c1 | inactive: 0.274% | –
Cc1cc(C)c(NC(=O)CSc2nc(-c3ccc(F)cc3)nc3c2Cc2c(CO)cnc(C)c2O3)c(C)c1 | inactive: -0.351% | –
CCOC(=O)C1=C(CN(CC)Cc2ccccc2)NC(=O)NC1c1ccc(OC(C)C)cc1 (stereo not given) | inconclusive: 3.14% [signal inhibitor] | –
COc1ccccc1CNC(=O)c1ccc(N2CCCC2)c(NC(=O)NCc2ccc(F)cc2)c1 | inconclusive: 3.71% [signal activator] | –
CCOc1ccc2nc3sc(C(=O)N4CCN(C)CC4)c(N)c3cc2c1 | inactive: 1.63% | –
CCCCSCCCNC(=O)C1CCN(Cc2nc(-c3cccc(Br)c3)oc2C)CC1 | inconclusive: 0.311% [signal inhibitor] | –
O=C(Cn1ncc2c3ccccc3n(Cc3ccccc3F)c2c1=O)N1CCCCC1 | inconclusive: 2.04% [signal inhibitor] | –
CCn1c(=O)c2cc(C(=O)N3CCCC3)sc2c2ccccc21 | inactive: -2.38% | –
CCOc1ccc(CCNC(=O)c2[nH]c3cc(OC)ccc3c2Sc2ccccc2)cc1OCC | inconclusive: -0.584% [signal inhibitor] | –
CCCC(c1nnnn1C(C)(C)CC)N1CCN(C2CCCC2)CC1 (stereo not given) | inactive: 1.04% | –
CC(=O)Oc1ccc2occ(C(=O)c3cccs3)c2c1 | inconclusive: 0.522% [signal inhibitor] | –
COc1ccc(C2C3=C(N=C4SCC(=O)N42)c2ccccc2CC3)cc1OC (stereo not given) | inactive: -1.91% | –
Cc1cccc2c1-c1sc(C(=O)N3CCN(c4cccc(Cl)c4)CC3)cc1CO2 | inconclusive: 2.16% [signal inhibitor] | –
CC(C)OCc1cc(CN2CCN(c3ccccc3)CC2)c(O)c2ncccc12 | inactive: 2.56% | –
O=C(Cn1cnc2c(cnn2-c2ccc(F)cc2)c1=O)N1CCCc2ccccc21 | inconclusive: 6.52% [signal inhibitor] | –
O=C(CN1C(=O)C2(SCC(=O)N2c2ccc(F)c(F)c2)c2ccccc21)Nc1ccccc1F (stereo not given) | inconclusive: 9.25% [signal inhibitor] | –
CCOC(=O)c1ccc(N2C(=O)c3n[nH]c(-c4ccco4)c3C2c2ccc(F)cc2)cc1 (stereo not given) | inconclusive: -2.59% [signal inhibitor] | –
O=C(CSc1nccn1Cc1ccc(Cl)cc1)NCc1ccccc1 | inconclusive: 1.44% [signal inhibitor] | –
Cc1ccc(C)c(C(=O)COC(=O)CCCC(=O)Nc2cc(C(F)(F)F)ccc2Cl)c1 | inconclusive: 9.65% [signal inhibitor] | –

Structure (SMILES) | IkBa stabilization activation | Potency
Cc1cccc(CC(=O)NCCc2csc(-c3ccc(C(F)(F)F)cc3)n2)c1 | inconclusive: -2.65% [signal inhibitor] | –
COc1ccc(C2=Nn3c(nnc3-c3cccnc3)SC2)cc1 | inactive: 3.97% | –
O=C(Nc1ccccc1N1CCN(c2ccc(F)cc2)CC1)C1CCCCC1 | inconclusive: 3.06% [signal inhibitor] | –
COC(=O)C1=C(c2ccccc2)c2ccccc2S(=O)(=O)N1CC(=O)Nc1ccc(OC)cc1OC | inactive: -1.63% | –
O=C(c1ccco1)N1CCN(C(c2ccccc2Cl)c2nnnn2Cc2cccs2)CC1 (stereo not given) | inconclusive: 6.41% [signal inhibitor] | –
O=[N+]([O-])c1ccc(NCCO)c(OCCO)c1 | inactive: 0.0605% | –
Cc1ccc(Cl)cc1-n1ncc2c(N3CCC(C)CC3)ncnc21 | inconclusive: 2.83% [signal inhibitor] | –
Cc1ccc(CNC(=O)CN2CCN(Cc3ccc(F)cc3)C2=O)cc1 | inconclusive: 1.24% [signal inhibitor] | –
Cc1ccc(Cc2nc3ccccc3nc2SCC(=O)N2CCCCC2C)cc1 (stereo not given) | inconclusive: 2.4% [signal inhibitor] | –
Oc1ccc(NCc2ccc(OCc3ccccc3Cl)cc2)cc1 | inconclusive: -7.11% [signal inhibitor] | –
COC(=O)c1cccc(NC(=O)Nc2cc(C(=O)NCc3cccc(F)c3)ccc2N2CCCC2)c1 | inconclusive: 3.57% [signal inhibitor] | –
COCCn1c(=O)c(-c2cccs2)nc2cnc(Oc3ccc(OC)cc3)nc21 | inactive: -1.3% [at 11.4 µM, scaled: untreated 0%, proteasome inhibitor 100%] | –
CC(=O)N1CCc2cc(Br)cc(S(=O)(=O)N3CCN(c4cccc(C)c4)C(C)C3)c21 (stereo not given) | inconclusive: 0.335% [signal inhibitor] | –
COc1cc(C2c3c(n[nH]c3C)C(=O)N2c2ccc(Br)cc2)ccc1O (stereo not given) | inconclusive: -0.0728% [signal inhibitor] | –
Cc1nn(C(C)C(=O)NC2CCC(C)CC2)c(=O)c2cc3sccc3n12 (stereo not given) | inconclusive: 2.53% [signal inhibitor] | –
COc1ccc(CCN2CCC(CNC(=O)c3cnn(-c4ccccc4)c3C3CCN(C(=O)OC(C)(C)C)CC3)CC2)cc1 | inconclusive: 1.63% [signal inhibitor] | –
CN(C)c1ccc(CNC(=O)CCCn2ccc3cc(S(=O)(=O)N4CCCC4)ccc32)cc1 | inconclusive: 2.48% [signal inhibitor] | –
COc1ccc(Cl)cc1NC(=O)c1cc(C)nn1-c1ccccc1 | inconclusive: 7.45% [signal inhibitor] | –
CCOC(=O)c1c(NC(=O)c2cc(=O)c3ccc(C)cc3o2)sc(C)c1C | inactive: -1.31% | –
O=C(Nc1ccncc1)c1cc2ccccc2o1 | – | inconclusive: 15.8 µM [signal inhibitor, partial curve]
Cc1cccc(NC(=O)Cn2c(C(F)(F)F)nc3ccccc32)c1C | inactive: 2.61% | –
CCOc1cccc(C=Nc2cc(C)cc(C)c2O)c1O | inconclusive: 11.7% [signal inhibitor] | –
CCN1CCC[C@@H]1CNC(=O)c1c(OC)ccc(I)c1O | inactive: -9.58% | –
Cc1ccc(-c2cc(C(=O)N3CCN(c4ccccc4)CC3)c3ccccc3n2)cc1C | inactive: 1.13% | –

Structure (SMILES) | IkBa stabilization activation | Potency
Cc1ccc(Cn2c(CCCNC(=O)C3CCCCC3)nc3ccccc32)cc1 | inactive: 0.788% | –
Cc1ccc(N2CC(NC(=O)C(=O)c3c[nH]c4ccccc34)CC2=O)cc1 (stereo not given) | inconclusive: 5.87% [signal inhibitor] | –
COc1ccc(OC)c(-c2cc(C(=O)N3CCc4ccccc4C3)no2)c1 | inconclusive: 1.92% [signal inhibitor] | –
CC(C)CCNC(=O)c1ccc2c(c1)N(Cc1ccccc1F)C(=O)c1ccccc1S2=O (stereo not given) | inconclusive: 1.09% [signal inhibitor] | –
O=C(CSc1ncn[nH]1)Nc1nnc(-c2ccccc2)s1 | – | inconclusive: 25.1 µM [signal inhibitor, partial curve]
Cc1cccn2c(=O)c3cc(C(=O)N(Cc4ccccc4)C(C)C)sc3nc12 | inconclusive: 6.24% [signal inhibitor] | –
COc1ccc2c(c1)CCc1cc(C(=O)N3CCN(c4ccc(N5CCOCC5)nn4)CC3)sc1-2 | inconclusive: 9.04% [signal inhibitor] | –
Cc1c(C(=O)NCCc2ccc(S(N)(=O)=O)cc2)sc2nc3n(c(=O)c12)CCCC3 | inactive: -0.851% | –
Cc1ccc(C23CC4CC(CC(NC(=O)N5CCN(C)CC5)(C4)C2)C3)cc1 | inactive: 2% | –
Cc1cc(Cl)ccc1NC(=O)C1CCN(c2nnc(-n3c(C)ccc3C)s2)CC1 | inconclusive: 0.854% [signal inhibitor] | –
CCOC(=O)c1ccccc1NC(=O)N1CCOc2ccc(Cl)cc21 | inactive: 0.681% | –
COc1ccc(-c2cc(C(F)(F)F)n3nc(C(=O)NCC45CC6CC(CC(C6)C4)C5)cc3n2)cc1OC | inconclusive: -1.94% [signal inhibitor] | –
CCc1ccccc1NC(=O)CSc1nc2c(oc3ccccc32)c(=O)n1-c1ccccc1F | inconclusive: 2.01% [signal inhibitor] | –
Cc1ccc2ccc3cc(C(=O)N4CCN(c5ccccc5)CC4)nc3c2[nH]1 | inconclusive: -7.07% [signal inhibitor] | –
CCCOc1ccc(NC(N)=O)cc1OCCC | inactive: 0.362% | –
Cc1ccc(NC(=O)C(=O)NCC(c2cccnc2)N2CCN(Cc3ccccc3)CC2)cc1 (stereo not given) | inconclusive: 2.57% [signal inhibitor] | –
Nc1ccc(S(=O)(=O)NCCS(=O)(=O)O)cc1 | inactive: 2.73% [at 11.4 µM, scaled: untreated 0%, proteasome inhibitor 100%] | –
CCOc1ccc(C2C(C(=O)Nc3ccc(Cl)cc3)=C(C)Nc3nc(C(F)(F)F)nn32)cc1 (stereo not given) | inconclusive: 5.55% [signal inhibitor] | –
Cc1ccccc1NC(=O)CN(c1ccc(Cl)cc1Cl)S(=O)(=O)c1ccccc1 | inconclusive: 2.68% [signal inhibitor] | –
C[C@@]12C(=O)OC(=O)[C@@]1(C)[C@@H]1CC[C@@H]2O1 | inconclusive: 3.28% [signal inhibitor] | –
COc1ccc(-c2nc3sc(CCNC(=O)c4ccccc4C)c(C)n3n2)cc1 | inconclusive: -3.17% [signal inhibitor] | –
Cc1ccc2c(c1)-c1c(c(C(=O)N3CCN(c4cc(Cl)ccc4C)CC3)nn1C)CS2 | inactive: -2.1% | –
